Experimental data published in publication PMC4336329 (PLoS ONE, 2015).
Out of some 310,000 compounds screened, about 14,000 (4.5%) showed an effect of 50% or more. Effects have a minus sign here. This is one part of the list.

target: human ether-à-go-go-related gene (hERG) potassium channel (human, UniProt Q12809); assay: primary screen, population patch clamp on CHO cells stably expressing hERG
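Further: peak tail current of the secondary pulse compared with the same well before compound.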

human ether-à-go-go-related gene (hERG) potassium channel, sequence (Q12809 whole entry, looked up): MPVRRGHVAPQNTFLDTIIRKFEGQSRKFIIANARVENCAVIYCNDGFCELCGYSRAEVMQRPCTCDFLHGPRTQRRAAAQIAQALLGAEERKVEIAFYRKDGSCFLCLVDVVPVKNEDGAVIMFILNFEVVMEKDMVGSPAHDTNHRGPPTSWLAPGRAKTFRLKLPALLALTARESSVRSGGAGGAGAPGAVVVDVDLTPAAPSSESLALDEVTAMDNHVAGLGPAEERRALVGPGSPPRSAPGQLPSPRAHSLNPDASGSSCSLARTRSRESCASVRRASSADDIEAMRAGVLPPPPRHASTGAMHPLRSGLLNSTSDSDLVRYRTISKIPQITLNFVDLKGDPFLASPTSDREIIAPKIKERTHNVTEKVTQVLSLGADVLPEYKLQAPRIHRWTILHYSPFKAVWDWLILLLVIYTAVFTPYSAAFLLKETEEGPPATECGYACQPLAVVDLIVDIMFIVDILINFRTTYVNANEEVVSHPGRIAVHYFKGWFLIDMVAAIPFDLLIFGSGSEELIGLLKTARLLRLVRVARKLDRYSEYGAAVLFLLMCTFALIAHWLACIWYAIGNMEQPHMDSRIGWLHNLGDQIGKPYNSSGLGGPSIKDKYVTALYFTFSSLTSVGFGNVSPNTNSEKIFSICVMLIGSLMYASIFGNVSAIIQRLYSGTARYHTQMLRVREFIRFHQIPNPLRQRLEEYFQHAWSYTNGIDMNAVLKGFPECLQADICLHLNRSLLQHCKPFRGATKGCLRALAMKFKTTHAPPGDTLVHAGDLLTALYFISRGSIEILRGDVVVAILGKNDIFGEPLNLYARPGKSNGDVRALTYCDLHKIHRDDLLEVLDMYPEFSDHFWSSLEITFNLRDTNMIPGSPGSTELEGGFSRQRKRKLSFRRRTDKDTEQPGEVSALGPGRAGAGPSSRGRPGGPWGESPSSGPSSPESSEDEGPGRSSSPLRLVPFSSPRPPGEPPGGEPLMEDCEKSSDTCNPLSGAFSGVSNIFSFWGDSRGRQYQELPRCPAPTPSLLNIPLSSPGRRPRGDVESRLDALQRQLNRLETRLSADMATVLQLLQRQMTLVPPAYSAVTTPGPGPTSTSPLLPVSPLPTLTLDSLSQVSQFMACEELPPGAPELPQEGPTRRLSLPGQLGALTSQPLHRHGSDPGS

Row | Structure (SMILES) | hERG current change (%, negative = inhibition) at 10uM
1 | CCC(C)CNC(=O)c1cccc(OC2CCN(CC(C)(C)C)CC2)c1 (centres unmarked) | -7.71%
2 | O=C(COC(=O)c1ccco1)c1ccc(F)cc1 | 15.2%
3 | Cc1ccccc1CSc1nnc(C)c(=O)n1N | 12.3%
4 | CC(=O)c1c(C)n(-c2ccccc2)c2ccc(OCC(N)=O)cc12 | 16.5%
5 | Brc1c(CSc2nnc(-c3ccco3)o2)nc2ccccn12 | -47.3%
6 | Cc1nn(-c2ccccc2)c(N2CCCC2)c1/C=N/NC(=O)c1cc(-c2ccccc2)nc2ccccc12 | 13.3%
7 | CCOc1ccc(-c2cc(C(=O)NCC3CCCO3)c3ccccc3n2)cc1 (centres unmarked) | -7.94%
8 | C[C@@H](C(=O)NCc1ccc(S(C)(=O)=O)cc1)[C@@H]1C[C@@]1(C)[C@@H](NC(=O)OCc1ccccc1)c1ccccc1 | -75.1%
9 | Cc1ccc(C(=O)NCCSc2ccc(Cl)cc2)cc1[N+](=O)[O-] | -17%
10 | O=C(NCc1ccccc1)N1CCC(Cc2ccccc2)CC1 | 10.5%
11 | COc1ccc(NC(=O)C2CC(c3ccc(Cl)cc3)=NO2)cc1 (centres unmarked) | 5.65%
12 | NS(=O)(=O)c1ccc(CCNC(=O)CSc2nc3ccccc3c(=O)n2CC2CCCO2)cc1 (centres unmarked) | -43.1%
13 | CCNc1nc(NCC)n2c(SCC(=O)NC34CC5CC(CC(C5)C3)C4)nnc2n1 | -11.3%
14 | Cc1c(C(=O)N2CCC3(CC2)OCCO3)oc2ccc(S(=O)(=O)N3CCOCC3)cc12 | 6.5%
15 | O=C(CCCc1c[nH]c2ccccc12)N[C@@H](Cc1c[nH]c2ccccc12)C(=O)O | 18.9%
16 | COc1ccc(C(=O)C2CCCN(Cc3cccn3-c3nccs3)C2)cc1OC (centres unmarked) | -82%
17 | FC(F)(F)c1nc2ccccc2c2nc3ccccc3n12 | 25.4%
18 | C[C@H]1CN=C(N(C)C)N1CC1CCCC1 | 7.36%
19 | COC(=O)N1C(c2ccccc2)C1c1ccccc1 (centres unmarked) | 19.1%
20 | COc1ccc(OC)c(C2C(C(N)=O)=C(C)Nc3nc(-c4cccc(Cl)c4)nn32)c1 (centres unmarked) | -26.7%
21 | CC(C)CC(NC(=O)C1CCC(C)CC1)C(=O)NCc1ccccn1 (centres unmarked) | 18%
22 | COc1ccc(-c2[nH]ncc2-c2ccc(Cl)cc2)c(O)c1 | 2.36%
23 | CCOc1ccc(-n2ccc(=O)c(C(=O)Nc3ccc(S(=O)(=O)Nc4ncccn4)cc3)n2)cc1 | 7.22%

Row | Structure (SMILES) | hERG current change (%, negative = inhibition) at 10uM
24 | O=C(Nc1cccc([N+](=O)[O-])c1)c1ccc(CN2CCOCC2)cc1 | -17.5%
25 | O=S(=O)([N-]c1nc2ccccc2nc1-[n+]1ccccc1)c1ccc(Cl)cc1 | -10.5%
26 | CCn1cc(C(=O)OCC(=O)Nc2c(C)n(C)n(-c3ccccc3)c2=O)c(=O)c2ccc(C)nc21 | -5.21%
27 | CCCc1nccn1S(=O)(=O)c1cc(OC)ccc1OC | -7.88%
28 | CCCS(=O)(=O)N1CCC(C(=O)NCc2ccc(F)cc2)CC1 | -9.89%
29 | O=C(CSC1=NS(=O)(=O)c2cc(Cl)ccc2N1)NCCc1ccccc1 | 15.4%
30 | Nc1nnc(C(F)(F)F)s1 | 9.26%
31 | Cc1c([N+](=O)[O-])cc(S(=O)(=O)Nc2ccc(-c3ccc(N4CCCC4)nn3)cc2)cc1[N+](=O)[O-] | 3.05%
32 | O=C(CN(C(=O)CCC(=O)Nc1ccccn1)c1cccc(F)c1)NCc1ccc2c(c1)OCO2 | 4.96%
33 | Cc1ccc(S(=O)(=O)Nc2nc(C)c(C(=O)Nc3ccccc3)s2)cc1 | 7.58%
34 | COC(=O)C1CCCN1C(C(=O)NC1CCCCC1)c1ccc(Cl)cc1 (centres unmarked) | 2.3%
35 | CCOc1ccc(NC(=O)CSc2nnc(Cn3c(=O)sc4ccccc43)n2C)cc1 | -4.3%
36 | CCOC(=O)CCNC(=O)N1CCCC(N(C)CCc2ccccc2)C1 (centres unmarked) | -49.4%
37 | O=C(Nc1cccc(S(=O)(=O)NC2=NCCC2)c1)c1cc(-c2ccccn2)nc2ccccc12 | 13.8%
38 | CN(CC(=O)N1CCCCCC1)S(=O)(=O)c1ccccc1 | 5.25%
39 | COc1ccc(C(=O)NCc2ccccn2)cc1 | 9.55%
40 | Cc1[nH]n(-c2ccccc2)c(=O)c1/C=N/Nc1nncc(-c2ccccc2)n1 | 6.56%
41 | CC(C)CC(=O)Nc1ccccc1N1CCCC1 | 12.4%
42 | O=C(Nc1ccccc1F)c1ccncc1 | 24.8%
43 | COc1ccc2[nH]c3c(N4CCC(O)(c5cccc(C(F)(F)F)c5)CC4)ncnc3c2c1 | -3.71%
44 | S=C(NCc1ccccc1)NC1CCCc2ccccc21 (centres unmarked) | -9.49%
45 | Oc1cccc(NC(=S)N=Nc2c(O)[nH]c3ccccc23)c1 | -0.615%
46 | CCS(=O)CCSc1nc2ccccc2s1 (centres unmarked) | 7.66%

Row | Structure (SMILES) | hERG current change (%, negative = inhibition) at 10uM
47 | O=C(Cc1ccc(S(=O)(=O)N2CCOCC2)s1)N1CCN(S(=O)(=O)c2cccc(Cl)c2)CC1 | -5.33%
48 | Cc1ncc[nH]1 | 21.5%
49 | Cc1ccc(NC(=O)CN2CCc3cc4c(cc3C2C)OCCCO4)cc1 (centres unmarked) | -14.2%
50 | Cc1noc(C)c1CCC(=O)Nc1c(C(C)C)cccc1C(C)C | -28.6%
51 | CC(C(=O)N=Nc1c(O)n(C)c2ccc(Br)cc12)n1cnc2ccccc2c1=O (centres unmarked) | 1.18%
52 | Cc1ccc(-c2ccc3nnc(SCC(=O)NCC4CCCO4)n3n2)cc1 (centres unmarked) | -3.04%
53 | CC1CC(Nc2ccccc2)c2ccccc2N1C(=O)c1ccco1 (centres unmarked) | -6.29%
54 | COc1cc2c(cc1NC(=O)c1cc(-c3cccnc3)nc3ccc(C)cc13)oc1ccccc12 | 8.86%
55 | COc1cc(OC)cc(C(=O)NCCOC23CC4CC(CC(C4)C2)C3)c1 | -28.4%
56 | O=C(O)CCC(=O)Nc1ccc(N2CCCCCC2)cc1 | 11.1%
57 | COc1cccc(C(N)=O)c1 | 8.86%
58 | Cc1cnc(C(=O)Nc2ccccc2F)cn1 | 15%
59 | CCCc1nc(NCCO)c(C#N)c2c1CCCC2 | -18.9%
60 | CCc1ccc(C(=O)NNC(=O)c2ccc3c(=O)n4c(nc3c2)CCC4)cc1 | 5.5%
61 | COc1ccccc1OCC(=O)Nc1ccc(S(=O)(=O)Nc2cc(C)on2)cc1 | 19.1%
62 | O=C(c1ccccc1Oc1nnnn1-c1ccccc1)N1CCOCC1 | 6.79%
63 | COC(=O)c1ccccc1S(=O)(=O)N(Cc1ccco1)Cc1cc2cc(OC)ccc2[nH]c1=O | -11.2%
64 | COc1ccc(C=O)cc1OC(=O)N1CCOCC1 | 6.45%
65 | CC(C)CCn1c(=O)c2ccccc2n2c(CN3CCOCC3)nnc12 | -11.9%
66 | O=C(Cn1cnc2ccccc2c1=O)N/N=C/c1ccc(Br)cc1 | 10.4%
67 | O=C(N/N=C/C1CCCCC1)c1ccccn1 | -2.21%
68 | Cn1c(C(=O)NCCc2c[nH]c3ccccc23)cc2sccc21 | -7.56%
69 | COc1ccc2[nH]c3nc(SCC(=O)Nc4cccc(NC(C)=O)c4)nnc3c2c1 | 20.2%

Row | Structure (SMILES) | hERG current change (%, negative = inhibition) at 10uM
70 | COC(=O)c1c(C)oc2ccc(OC(=O)c3cccs3)cc12 | -12.5%
71 | c1ccc(Nc2nc(N3CCCC3)nc(N3CCCC3)n2)cc1 | 13.1%
72 | CCCCNc1nc2c(c(=O)n(C)c(=O)n2C)n1Cc1cccc(OC)c1 | -28.5%
73 | O=C(NCc1ccco1)C1(c2ccc(Cl)cc2)CCCC1 | 1.27%
74 | Cc1cc(NC(=O)C(C)SCC(=O)N(C)Cc2ccccc2F)no1 (centres unmarked) | -1.71%
75 | CN1C(=O)C(C)(C)c2cc(S(=O)(=O)NCC3CCC(C(=O)NC4CCCCC4)CC3)ccc21 (centres unmarked) | -13%
76 | O=C(CCc1nnc2ccc(NCc3ccco3)nn12)N1CCCCC1 | 15.1%
77 | O=C(CN1C(=O)NC2(CCCCCC2)C1=O)c1ccc2c(c1)OCCO2 | 0.349%
78 | COc1cccc(NC(=O)C(=O)NCCc2ccc(F)cc2)c1 | 3.58%
79 | Clc1ccc(N2CCN(c3cnc4ccccc4n3)CC2)cc1 | 18.4%
80 | O=C(O)C1=C[C@@H](c2ccc(C(F)(F)F)cc2)C[C@@H](OCCCCO)O1 | 12.6%
81 | CCc1c(C)c2cc(Cl)c(O)c(CN(CC)CC)c2oc1=O | 0.288%
82 | Cc1cccc(N2CN(Cc3ccco3)CNC2=S)c1 | 5.21%
83 | COc1ccc(C(=O)N/N=C(/C)c2ccc(N3CCCCC3)cc2)cc1 | 8.63%
84 | CCOc1ccc(-n2c(=O)c3sccc3n(CC(=O)NCc3ccco3)c2=O)cc1 | -2.54%
85 | CN1c2ccccc2C(O)=C(C(=O)Nc2ccccc2)S1(=O)=O | -4.37%
86 | COCCN(C(=O)COC(=O)COc1ccc2c(c1)CCC2)c1c(N)n(Cc2ccccc2)c(=O)[nH]c1=O | 16.9%
87 | O=C(COCc1cc(-c2ccc3c(c2)OCO3)on1)N1CCN(c2ccccc2)CC1 | 0.048%
88 | CC(/C=C/c1ccco1)=N\NC(=O)c1cc(C)[nH]n1 | 5.55%
89 | CCOC(=O)c1cnn(-c2ccccc2)c1NC(=O)CSc1nnc(-c2cccs2)n1CC | -69.5%
